According to the supplement of paper PMC10320760:
Single values of this set are uncertain.

B1: Ydj1; a variant is named by its letters at X, in order (parent)
chain: MVKETKFYDILGVPVTATDVEIKKAYRKCALKYHPDKNPSEEAAEKFKEASAAYEILSDPEKRDIYDQFGEDGLSGAGGAGGFPGGGFGFGDDIFSQFFGAGGAQRPRGPQRGKDIKHEISASLEELYKGRTAKLALNKQILCKECEGRGGKKGAVKKCTSCNGQGIKFVTRQMGPMIQRFQTECDVCHGTGDIIDPKDRCKSCNGKKVENERKILEVHVEPGMKDGQRIVFKGEADQAPDVIPGDVVFIVSERPHKSFKRDGDDLVYEAEIDLLTAIAGGEFALEHVSGDWLKVGIVPGEVIAPGMRKVIEGKGMPIPKYGGYGNLIIKFTIKFPENHFTSEENLKKLEEILPPRIVPAIPKKATVDECVLADFDPAKYNRTRASRGGANYDSDEEEQGGEGVQCXXX

Variants of: B1
Assay: enrichment factor, frequency at 37 °C / frequency at 25 °C (thermotolerance selection) (ratio); higher = more growth at 37 °C, higher likelihood of farnesylation
Conditions: with Saccharomyces cerevisiae ydj1Δ (yWS304); selective temperature 37 °C; reference temperature 25 °C
Variant ATV has an enrichment factor of 2.21.
With ATS the enrichment factor was 1.23.
Work on ATY yielded an enrichment factor of 1.59.
With ATT the enrichment factor was 1.54.
In the case of ATW, the enrichment factor is reported as 1.04.
Work on PTR yielded an enrichment factor of 0.0891.
Work on PTT yielded an enrichment factor of 1.34.
PTS gave an enrichment factor of 1.71.
PTY gave an enrichment factor of 1.8.
PTV was tested, and the enrichment factor was 1.41.
For PTW, the enrichment factor was 1.64.
Variant TVK has an enrichment factor of 2.25.
With TVL the enrichment factor was 0.602.
TVD gave an enrichment factor of 2.17.
With TVH the enrichment factor was 2.53.
For TVI, the enrichment factor was 0.632.
TVC gave an enrichment factor of 0.666.
In the case of TVA, the enrichment factor is reported as 0.807.
With TVE the enrichment factor was 2.7.
TVG gave an enrichment factor of 1.5.
Variant TVM has an enrichment factor of 0.794.
TVF gave an enrichment factor of 1.12.
Variant SVH has an enrichment factor of 2.72.
SVF gave an enrichment factor of 1.06.
For SVA, the enrichment factor was 0.873.
Variant SVI has an enrichment factor of 1.
With SVC the enrichment factor was 0.739.
With SVL the enrichment factor was 0.818.
In the case of SVM, the enrichment factor is reported as 0.856.
SVG showed an enrichment factor of 2.84.
SVK showed an enrichment factor of 1.97.
SVD showed an enrichment factor of 1.87.
SVE was tested, and the enrichment factor was 1.43.
Variant QTV has an enrichment factor of 2.48.
With QTS the enrichment factor was 1.68.
QTW gave an enrichment factor of 1.58.
Variant QTR has an enrichment factor of 0.202.
QTT was tested, and the enrichment factor was 1.85.
In the case of QTY, the enrichment factor is reported as 2.03.
For ITV, the enrichment factor was 1.65.
ITW showed an enrichment factor of 0.669.
ITS gave an enrichment factor of 1.52.
Variant ITY has an enrichment factor of 0.901.
In the case of ITT, the enrichment factor is reported as 1.37.
With VTV the enrichment factor was 2.51.
For VTY, the enrichment factor was 2.71.
VTS was tested, and the enrichment factor was 2.26.
VTT showed an enrichment factor of 1.95.
With VTR the enrichment factor was 0.479.
Work on VTW yielded an enrichment factor of 1.9.
Work on PVL yielded an enrichment factor of 0.964.
For PVM, the enrichment factor was 0.984.
In the case of PVD, the enrichment factor is reported as 1.48.
PVA gave an enrichment factor of 1.84.
For PVE, the enrichment factor was 1.49.
With PVF the enrichment factor was 0.792.
In the case of PVH, the enrichment factor is reported as 1.51.
In the case of PVG, the enrichment factor is reported as 1.29.
In the case of PVK, the enrichment factor is reported as 1.16.
PVI gave an enrichment factor of 0.919.
For PVC, the enrichment factor was 1.02.
Variant HTT has an enrichment factor of 1.84.
For HTS, the enrichment factor was 1.99.
For HTV, the enrichment factor was 2.07.
HTW gave an enrichment factor of 1.44.
With HTY the enrichment factor was 2.27.
KTY showed an enrichment factor of 2.02.
Work on KTS yielded an enrichment factor of 1.63.
Work on KTW yielded an enrichment factor of 1.78.
Variant KTV has an enrichment factor of 1.57.
Variant KTT has an enrichment factor of 1.56.
RTW gave an enrichment factor of 1.29.
Variant RTS has an enrichment factor of 2.7.
For RTV, the enrichment factor was 1.8.
RTR gave an enrichment factor of 0.146.
RTT was tested, and the enrichment factor was 1.62.
With RTY the enrichment factor was 1.68.
RVD showed an enrichment factor of 1.28.
For RVM, the enrichment factor was 0.524.
Variant RVL has an enrichment factor of 1.05.
RVC gave an enrichment factor of 0.824.
RVK showed an enrichment factor of 1.07.
Variant RVA has an enrichment factor of 0.91.
For RVF, the enrichment factor was 1.43.
Work on RVH yielded an enrichment factor of 2.8.
RVI showed an enrichment factor of 0.772.
RVG showed an enrichment factor of 2.25.
In the case of RVE, the enrichment factor is reported as 1.64.
LVF showed an enrichment factor of 1.54.
LVM showed an enrichment factor of 0.933.
Variant LVL has an enrichment factor of 1.35.
Variant LVH has an enrichment factor of 2.43.
For LVD, the enrichment factor was 1.78.
Variant LVI has an enrichment factor of 1.4.
Variant LVA has an enrichment factor of 1.79.
Variant LVG has an enrichment factor of 2.65.
With LVE the enrichment factor was 1.82.
LVK was tested, and the enrichment factor was 1.56.
In the case of LVC, the enrichment factor is reported as 1.22.
Work on KVL yielded an enrichment factor of 2.08.
For KVE, the enrichment factor was 1.54.
Variant KVH has an enrichment factor of 3.84.
For KVK, the enrichment factor was 1.43.
For KVI, the enrichment factor was 1.16.
KVM gave an enrichment factor of 1.7.
KVA gave an enrichment factor of 2.35.
KVF showed an enrichment factor of 2.78.
With KVC the enrichment factor was 0.703.
With KVD the enrichment factor was 1.27.
With KVG the enrichment factor was 2.32.
QVH was tested, and the enrichment factor was 3.92.
In the case of QVI, the enrichment factor is reported as 2.12.
QVM was tested, and the enrichment factor was 2.39.
Work on QVG yielded an enrichment factor of 1.8.
QVD showed an enrichment factor of 1.53.
Variant QVL has an enrichment factor of 1.76.
For QVA, the enrichment factor was 1.97.
For QVK, the enrichment factor was 1.56.
Variant QVF has an enrichment factor of 2.17.
QVE gave an enrichment factor of 1.53.
QVC was tested, and the enrichment factor was 1.91.
CVA showed an enrichment factor of 0.529.
CVH was tested, and the enrichment factor was 1.92.
CVK showed an enrichment factor of 1.61.
CVI showed an enrichment factor of 0.772.
With CVF the enrichment factor was 0.865.
For CVC, the enrichment factor was 1.02.
With CVM the enrichment factor was 1.13.
Work on CVD yielded an enrichment factor of 1.83.
Work on CVL yielded an enrichment factor of 0.997.
In the case of CVE, the enrichment factor is reported as 1.8.
In the case of CVG, the enrichment factor is reported as 0.746.
In the case of FVC, the enrichment factor is reported as 1.16.
In the case of FVD, the enrichment factor is reported as 2.18.
FVI was tested, and the enrichment factor was 2.9.
FVE was tested, and the enrichment factor was 2.58.
Variant FVH has an enrichment factor of 1.49.
FVF was tested, and the enrichment factor was 1.32.
FVG was tested, and the enrichment factor was 0.463.
With FVK the enrichment factor was 1.83.
FVL showed an enrichment factor of 0.948.
FVM gave an enrichment factor of 1.16.
Variant FVA has an enrichment factor of 2.32.
In the case of HVD, the enrichment factor is reported as 2.27.
HVH showed an enrichment factor of 1.69.
HVL gave an enrichment factor of 1.97.
With HVE the enrichment factor was 2.79.
HVK showed an enrichment factor of 2.75.
In the case of HVC, the enrichment factor is reported as 1.16.
For HVI, the enrichment factor was 1.53.
HVM gave an enrichment factor of 1.22.
HVA showed an enrichment factor of 1.88.
Work on HVF yielded an enrichment factor of 4.05.
Work on HVG yielded an enrichment factor of 2.42.
ETV showed an enrichment factor of 1.51.
ETT was tested, and the enrichment factor was 1.14.
In the case of ETW, the enrichment factor is reported as 1.35.
In the case of ETY, the enrichment factor is reported as 1.16.
ETS was tested, and the enrichment factor was 1.73.
Variant DVG has an enrichment factor of 1.71.
DVF gave an enrichment factor of 2.01.
DVK gave an enrichment factor of 0.244.
DVC was tested, and the enrichment factor was 0.883.
Variant DVI has an enrichment factor of 1.41.
With DVL the enrichment factor was 1.76.
DVH was tested, and the enrichment factor was 1.93.
DVE was tested, and the enrichment factor was 1.06.
